# From article PMC4336329 (PLoS ONE, 2015)
# The campaign covered roughly 310,000 compounds. About 14,000 (4.5%) showed an effect of 50% or more. Effects have a minus sign here. The list shows a part of the results.
# Target: human ether-à-go-go-related gene (hERG) potassium channel (human, UniProt Q12809)
# Assay: primary screen, population patch clamp on CHO cells stably expressing hERG
# 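Note: peak tail current of the secondary pulse compared with the same well before compound.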
# Chain of human ether-à-go-go-related gene (hERG) potassium channel (Q12809 whole entry, looked up): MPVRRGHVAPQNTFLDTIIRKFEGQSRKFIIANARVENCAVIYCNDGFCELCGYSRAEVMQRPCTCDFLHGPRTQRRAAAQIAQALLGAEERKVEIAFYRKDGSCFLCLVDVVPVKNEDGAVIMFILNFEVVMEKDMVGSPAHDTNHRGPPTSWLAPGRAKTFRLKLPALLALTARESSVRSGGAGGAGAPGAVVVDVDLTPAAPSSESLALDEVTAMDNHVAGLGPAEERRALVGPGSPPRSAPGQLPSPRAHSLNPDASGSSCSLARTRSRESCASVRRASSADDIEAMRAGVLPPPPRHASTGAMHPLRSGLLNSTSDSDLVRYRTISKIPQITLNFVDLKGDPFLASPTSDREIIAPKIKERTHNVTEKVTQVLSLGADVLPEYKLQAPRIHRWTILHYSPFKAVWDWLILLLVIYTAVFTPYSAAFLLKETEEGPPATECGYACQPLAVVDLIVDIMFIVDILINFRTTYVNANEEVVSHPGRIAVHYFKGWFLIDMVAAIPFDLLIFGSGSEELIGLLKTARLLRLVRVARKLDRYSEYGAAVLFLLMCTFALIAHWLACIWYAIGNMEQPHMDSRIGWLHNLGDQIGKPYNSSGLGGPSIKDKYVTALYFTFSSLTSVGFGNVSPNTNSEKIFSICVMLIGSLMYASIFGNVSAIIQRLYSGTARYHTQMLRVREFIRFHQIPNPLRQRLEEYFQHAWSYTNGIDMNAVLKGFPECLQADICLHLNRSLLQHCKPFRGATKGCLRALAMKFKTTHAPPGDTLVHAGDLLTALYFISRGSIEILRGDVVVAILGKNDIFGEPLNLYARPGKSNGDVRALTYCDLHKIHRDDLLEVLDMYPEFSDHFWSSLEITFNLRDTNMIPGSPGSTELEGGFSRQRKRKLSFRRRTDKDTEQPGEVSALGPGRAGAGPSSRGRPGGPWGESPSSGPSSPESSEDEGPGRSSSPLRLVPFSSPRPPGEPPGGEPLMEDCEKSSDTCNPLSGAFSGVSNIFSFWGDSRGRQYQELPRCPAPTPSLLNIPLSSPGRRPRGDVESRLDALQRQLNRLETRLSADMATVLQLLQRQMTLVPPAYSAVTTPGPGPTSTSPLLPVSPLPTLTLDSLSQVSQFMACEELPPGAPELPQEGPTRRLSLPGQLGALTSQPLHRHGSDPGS
row,SMILES,"hERG current change (%, negative = inhibition) at 10uM [%]"
1,O=C(NCCNS(=O)(=O)c1ccccc1)c1cc(OCC(F)(F)F)ccc1OCC(F)(F)F,1.66
2,Cc1ccc(CSCC(=O)NCCCN2CCOCC2)cc1,11.4
3,CC1=C(C(=O)N2CCOCC2)C(c2ccccc2F)C2=C(CC(C)(C)CC2=O)N1 (stereo not drawn),0.00388
4,COc1cc(C(=O)Nc2ccc(N(C)C)cc2)c([N+](=O)[O-])cc1OC,11.6
5,COc1ccc(NS(=O)(=O)c2ccc(N3CCCC3=O)cc2)cn1,28.1
6,COc1cc(/C=N/N=C/c2c[nH]c(=O)c(C#N)c2Nc2ccccc2)ccc1O,-0.474
7,Cc1ccc(NC(=O)Cc2nnc(SCC(=O)NC3CCCC3)n2C)cc1,10.1
8,Br.CC(C)CC1CC(=O)OC1(C)C(=O)CSc1nc2ccccc2s1 (stereo not drawn),14.5
9,CCCCCNC(=O)c1ccccc1SC,8.32
10,CCOc1ccc(CCNC(=O)c2sc3nc4n(c(=O)c3c2C)CCC4)cc1OCC,-5.1
11,Cc1ccc(N2CC(C(=O)Nc3ccncc3)CC2=O)cc1 (stereo not drawn),-11
12,CCC[C@@H]1C[C@@]1(CCC)[C@@H](NP(=O)(c1ccccc1)c1ccccc1)c1ccc(C(=O)OC)cc1,8.49
13,C=CCN1CCN(c2ccncc2S(=O)(=O)N2CCCCC2)CC1,-7.29
14,O=S1(=O)CCC(NC(=S)NC2CCS(=O)(=O)C2)C1 (stereo not drawn),5.22
15,Nc1nnc(CCS(=O)(=O)c2ccc(Cl)cc2)s1,-4.86
16,Cc1ccc(C(=O)N/C(=C\c2ccco2)C(=O)N2CCCCC2)cc1,-11.1
17,O=C(c1ccc(N2CCCC2)c([N+](=O)[O-])c1)N1CCc2ccccc2C1,-27.7
18,CC(C)(C)C(=O)Nc1ccc(S(=O)(=O)c2ccc(NC(=O)C(C)(C)C)cc2)cc1,18.6
19,COc1ccc(S(=O)(=O)CCc2nc3ccccc3s2)cc1,4.84

row,SMILES,"hERG current change (%, negative = inhibition) at 10uM [%]"
1,COc1ccc(CCNC(=O)CN(c2cc(OC)ccc2OC)S(=O)(=O)c2ccccc2)cc1,5.89
2,CC(C)(C)c1ccc(C(=O)NCCOc2ccccc2F)cc1,7.61
3,CCCCN1C(=O)C(=O)N(CC(=O)Nc2sc(C)c(C)c2C(=O)OC)C1=O,8.28
4,Cc1ccc(NC(=O)NCc2cccn2C)cc1C,17.1
5,O=S1(=O)CCC(NC(=S)N2CCCCCC2)C1 (stereo not drawn),4.39
6,CCN1CCN(C(=O)/C=C/c2ccc(OC)c(OC)c2)CC1,19.7
7,Cc1cnc(NC(=O)c2ccc3c(c2)OCCO3)s1,3.14
8,Cc1cc(C)nc(Nc2cccc(C(F)(F)F)c2)n1.Cl,10.8
9,CCCCCC(=O)NCc1c(C(F)(F)F)nn(C)c1N1CCOCC1,12.8
10,CCC/S(CC1CC1(Cl)Cl)=N\S(=O)(=O)c1ccc(C)cc1 (stereo not drawn),-6.62
11,COc1ccc(C2C=C(c3ccccc3)Nc3nc(CCCO)nn32)cc1 (stereo not drawn),-51.8
12,Cc1cc(C)n2nc(C(=O)NCCc3ccccc3)nc2n1,1.19
13,COC(=O)c1cc(S(=O)(=O)N2CCCC2=O)c(Cl)cc1Cl,13.1
14,CC1(C)Cc2cccc(Oc3ccc(S(=O)(=O)N4CCCC4)cn3)c2O1,-46.5
15,COc1cccc(C(=O)OCC(=O)c2ccc(Br)s2)c1OC,-0.224
16,N#Cc1cccc(NC(=O)COC(=O)CCc2nc3ccccc3c(=O)[nH]2)c1,9.14
17,CCOC(=O)C(C(=O)OCC)N(C#N)c1nc(OC)nc(N(C)C)n1,-4.52
18,Cc1ccn2c(=O)nc(SCc3cccc(C(F)(F)F)c3)nc2c1,-51.5
19,CCOc1ccc(S(=O)(=O)Nc2nc3cc(OC)ccc3s2)cc1,3.87

row,SMILES,"hERG current change (%, negative = inhibition) at 10uM [%]"
1,C#CCSc1nnc(-c2cc3c(C(F)(F)F)nn(C)c3s2)n1C,5.79
2,Fc1ccccc1NC(=S)N1CCOCC1,16.6
3,CC(C)(CNC(=O)c1ccccc1NS(C)(=O)=O)N1CCCCC1,-7.99
4,COC(=O)c1cc(C(=O)NNC(=O)c2ccc3c(c2)OCO3)cc([N+](=O)[O-])c1,-7.98
5,Cc1ccc(C(=O)OCC(=O)c2ccc(CC(=O)N3CCOCC3)s2)cc1C,-31.2
6,O=C(NCCc1ccccc1)c1cccc([N+](=O)[O-])c1,-0.253
7,CCC/C=C(\CCC)C(NC(=O)c1ccc(C(F)(F)F)cc1)c1ccccc1 (stereo not drawn),16.7
8,Cc1cccc(NC(=O)c2nc(-c3ccccc3)n(-c3ccccc3)n2)c1C,-21.8
9,COc1cccc(-c2ncc3ccccc3c2COC(=O)c2ccco2)c1,15
10,O=C(NCc1ccccc1Cl)c1ccc(S(=O)(=O)Nc2cccc(C(F)(F)F)c2)cc1,3.51
11,Cc1ccc(OC(C)C(=O)Nc2ccccc2C(=O)N2CCN(C)CC2)cc1 (stereo not drawn),-5.11
12,Cc1ccc(CS(=O)(=O)CCC(=O)NCCCOC(C)C)cc1,5.17
13,NS(=O)(=O)c1ccc(NC(=O)CSc2nc3ccccc3[nH]2)cc1,-10.2
14,COc1ccc(S(=O)(=O)NCc2ccccn2)cc1Cl,-6.63
15,CCO/C(C)=C1\C(=O)N(CC)c2ccccc21,-1.64
16,CCC(C(=O)NC1CCCC1)N(C(=O)Cn1nnc(-c2ccc(OC)c(OC)c2)n1)C1CCCCC1 (stereo not drawn),-19.8
17,CCOC(=O)N1CCC(NC(=O)c2cccs2)CC1,6.2
18,COc1ccc(NC(=O)CCNS(=O)(=O)c2ccc3c(c2)CCC(=O)N3)cc1,-2.85
19,COCCCN(C(=O)c1ccccc1F)c1nc(-c2ccc(OC)cc2)cs1,8.7
